# Some of the results follow. The energies were worked out here from pooled read counts, against the library average; single values are noisy.
# Target: T1, Pho4 (S. cerevisiae) (UniProt P07270)
# T1 sequence: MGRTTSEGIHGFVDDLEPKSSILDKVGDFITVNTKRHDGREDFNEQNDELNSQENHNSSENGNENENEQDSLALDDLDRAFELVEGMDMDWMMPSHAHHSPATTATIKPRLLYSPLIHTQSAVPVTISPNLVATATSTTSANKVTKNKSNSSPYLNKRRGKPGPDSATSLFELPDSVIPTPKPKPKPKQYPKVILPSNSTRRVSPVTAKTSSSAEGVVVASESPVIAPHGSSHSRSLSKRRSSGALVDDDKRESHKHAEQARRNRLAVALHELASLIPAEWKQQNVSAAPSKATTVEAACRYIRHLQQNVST
# Assay: relative binding free energy (BET-seq); higher = weaker binding
# Conditions: reference: library average
row,Sequence,relative binding free energy [kcal/mol]
1,CGGCGCACGTGGGAGT,-0.31
2,GGTAGCACGTGAAGTG,0.25
3,GTAATCACGTGTAGGG,0.05
4,GTTTGCACGTGCTATA,-0.09
5,CGGTTCACGTGTTGTA,0.16
6,TATTACACGTGTTAAT,-0.01
7,TGGGGCACGTGACAGG,0.03
8,GTCGTCACGTGGGGGA,-0.17
9,CTGGTCACGTGACGGT,0.17
10,AGTCGCACGTGGAAGT,0.03
11,TCAGTCACGTGGGTAG,-0.05
12,GTGGGCACGTGTGCAG,-0.05
13,ATTCACACGTGCTGGG,0.04
14,CGGATCACGTGTTCGG,0.24
15,TACGGCACGTGAAGGT,0.16
16,TGTCGCACGTGTGGAA,0
17,GGCGGCACGTGGGGGA,-0.11
18,TTAGGCACGTGTTTGT,-0.14
19,CTAATCACGTGTGTGT,0.06
20,GGTGGCACGTGAAGTC,0.29
21,GGGTACACGTGTGGCT,0.09
22,TTATGCACGTGGAGTA,-0.05
23,TGCATCACGTGGGGGT,0.04
24,TTAGTCACGTGGGTCT,-0.05
25,ATGGTCACGTGAGTCT,0.14

row,Sequence,relative binding free energy [kcal/mol]
1,AGAGGCACGTGGGAAG,-0.07
2,AGGTGCACGTGTTGGT,0.04
3,GTGTTCACGTGGTACG,0.21
4,AAGTGCACGTGAGGGT,0.23
5,TTTAGCACGTGAAAGT,0.24
6,AGTCTCACGTGTTAAT,0.22
7,GGCTTCACGTGATGGT,0.32
8,GGCTGCACGTGTGTCT,0.03
9,CTAGTCACGTGTATGT,-0.03
10,GGAAGCACGTGTTAGA,-0.04
11,ATTGTCACGTGCGGAG,-0.06
12,GTGGGCACGTGGGGTC,-0.16
13,AAGATCACGTGGTCGG,0.09
14,GATAGCACGTGGAAGG,0.07
15,AAGTGCACGTGGGAGC,-0.06
16,ATATACACGTGTTAAG,0.05
17,CTGTGCACGTGATTTG,0.11
18,CGTGGCACGTGTGAAG,0.06
19,GGTGACACGTGTTTGG,0.13
20,TTGGTCACGTGAATGT,0.4
21,GTAGTCACGTGCGTTG,-0.05
22,AATGGCACGTGGCATG,-0.23
23,AGGGCCACGTGCTTGG,-0.26
24,ACTGGCACGTGTTGGT,-0.02
25,AAGGACACGTGGTGAA,0.04

row,Sequence,relative binding free energy [kcal/mol]
1,ATGGCCACGTGTTGTG,-0.14
2,GTTAGCACGTGGAGTA,-0.09
3,TGGGACACGTGTGGCA,0.13
4,TGCTACACGTGTTTAG,0.03
5,CCTGGCACGTGTTTGG,-0.12
6,GGAGGCACGTGGGCGT,-0.07
7,CTGTACACGTGATGTG,0.04
8,AAGTTCACGTGTTAGG,0.36
9,ACGTTCACGTGTCAGG,0.36
10,TTCGGCACGTGGGAGC,-0.09
11,GGGGACACGTGTATTT,0.12
12,TTCATCACGTGAAGTT,0.54
13,GCTCGCACGTGTGGGC,0.03
14,TTGTACACGTGTTGGC,0.16
15,GAGGCCACGTGCGGTG,-0.05
16,CTTGGCACGTGTTGCT,-0.07
17,CGTTGCACGTGTGGTC,-0.07
18,GATCGCACGTGTAGGT,0.04
19,AGCATCACGTGGTTGG,0.09
20,TATTACACGTGATGTT,0.24
21,GATTACACGTGTTATT,0.06
22,GAAATCACGTGGTGGT,0.18
23,TGACGCACGTGCGGGT,-0.16

# Reference: the BET-seq Pho4 binding data (Le et al. 2018)
